In PubChem BioAssay AID651820 (National Center for Advancing Translational Sciences (NCATS), 2012):
Hit rate of the full screen: of about 340,000 compounds, about 12,000 (3.5%) were called active. This list was built around the results that the source calls inconclusive (neither active nor inactive); the mix of calls is not that of the screen. Calls follow the shape of the dose curve; as a rule, active = well fitted inhibition curve with a large enough effect; inconclusive = small, poorly fitted or top-dose-only effect, or another doubt; inactive = no such curve, though single readings can be large or run the other way. Potencies of inconclusive entries are left out as doubtful fits.

Assay: qHTS Assay for Inhibitors of Hepatitis C Virus (HCV)
Conditions: Huh7.5.1 HCVcc-Cre (HCVcc is cell-culture hepatitis C virus) infection, luciferase reporter, 44 h; activity change, negative = inhibition: at 41.8 µM (top of the series)
Method in brief: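 Luciferase read-out (15 sec integration) after a 15 min room-temperature substrate step quantifies HCVcc-Cre infection. Cells, 1,000 per well, had compound added 4 h post-plating, then virus at ~0.5 moi, and were cultured 44 h.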
% is scaled to controls: 0 for no effect and ±100 for the full control effect; potency is read from the fitted curve at half-maximal effect; tags tell the direction and shape of the fitted curve.

Question: For `CN(C)CCNc1oc(COc2ccc(Cl)cc2)nc1C#N`, which Potency is on record?
Answer: inconclusive [inhibitor, single point]

Question: Which Potency does the source give for `C=CCn1c(SCC(=O)N2CCCCC2)nnc1-c1ccncc1` here?
Answer: inconclusive [inhibitor, single point]

Question: Which Potency does the source give for `CN(C)S(=O)(=O)N1CCC(Oc2cccc(C(=O)N3CCCCCCC3)c2)CC1` here?
Answer: inconclusive [inhibitor, single point]

Question: Which Potency does the source give for `COc1ccc(CNc2ccccc2SC)cc1OC` here?
Answer: inconclusive [inhibitor, single point]

Question: With `CCOC(=O)c1c(NC(=O)CSc2nnc(N)s2)sc(C)c1-c1ccc(C)cc1` as the molecule, how does the Potency read?
Answer: active: 25.1 µM

Question: Which “activity change, negative = inhibition” value does the source give for `CNC(=S)Nc1cccc(C(=O)OC)c1` here?
Answer: inactive: -4.2%

Question: For `COc1cc(/C=N/Nc2ccccn2)cc(OC)c1O`, which Potency is on record?
Answer: inconclusive [inhibitor, partial curve]

Question: For `CCN(CC)c1ccc(C(=O)OCC(=O)Nc2sccc2C#N)cc1`, which Potency is on record?
Answer: inconclusive [inhibitor, single point]

Question: Which Potency does the source give for `O=C(NC(Cc1ccccc1)c1ccc2c(c1)OCCCO2)c1ccc(F)cc1` (stereo unspecified) here?
Answer: inconclusive [inhibitor, single point]

Question: Which Potency does the source give for `O=C(Nc1ccc2c(c1)OCO2)c1cnn2c(C(F)(F)F)cc(-c3ccco3)nc12` here?
Answer: inconclusive [inhibitor, single point]

Question: Which “activity change, negative = inhibition” value does the source give for `COc1ccc(C)cc1Nc1n[n+](C)c(-c2ccc(O)cc2O)s1` here?
Answer: inactive: 9.72%

Question: Which “activity change, negative = inhibition” value does the source give for `C/C=C(\C)C(=O)N1CC2(CC(c3cccc(NC(=O)COc4ccc(Cl)cc4)c3)=NO2)C[C@@H]1C(N)=O` (stereo partly specified) here?
Answer: inactive: -20.7%

Question: With `Cc1ccc(-c2nnc(NCc3nc4ccccc4[nH]3)c3ccccc23)cc1S(=O)(=O)N1CCCCC1` as the molecule, how does the Potency read?
Answer: inconclusive [inhibitor, partial curve]

Question: For `CC(=O)c1cccc(Nc2cc(C)nc3ccc(C)cc23)c1`, which Potency is on record?
Answer: inconclusive [inhibitor, partial curve]

Question: For `COCCn1c(C)cc(C(=O)COc2nc3ccccc3nc2C)c1C`, which Potency is on record?
Answer: inconclusive [inhibitor, single point]

Question: Which “activity change, negative = inhibition” value does the source give for `CC1CCC(NC(=O)C(Cc2ccccc2)n2cccc2)CC1` (stereo unspecified) here?
Answer: inactive: -13.2%

Question: Which “activity change, negative = inhibition” value does the source give for `O=C(NCCNC(=O)c1ccccc1F)c1ccco1` here?
Answer: inactive: 23.7%

Question: With `COc1cc(/C=N\NC(=O)CC(=O)NCCc2ccccc2)ccc1O` as the molecule, how does the Potency read?
Answer: inconclusive [inhibitor, single point]

Question: With `O=C(COC(=O)C1CCN(S(=O)(=O)c2cccs2)CC1)NCc1ccc(F)cc1` as the molecule, how does the “activity change, negative = inhibition” value read?
Answer: inactive: 13.2%

Question: For `CC(C)COc1ccc(-c2nn(-c3ccccc3)cc2/C=C2/SC(=S)N(CC(=O)O)C2=O)cc1`, which “activity change, negative = inhibition” value is on record?
Answer: inactive: 11%

Question: Which “activity change, negative = inhibition” value does the source give for `CC(=O)c1ccc(NS(=O)(=O)c2ccc(-c3cnc(C4CC4)o3)cc2)cc1` here?
Answer: inactive: 11.6%

Question: With `N#Cc1c(N2CCN(C(=O)c3ccccc3Cl)CC2)nc(-c2ccccc2)c2c1CCCC2` as the molecule, how does the Potency read?
Answer: inconclusive [inhibitor, single point]

Question: For `CCOC(=O)c1c(C)[nH]c(C(=O)OCC(=O)NCc2ccccc2)c1C`, which Potency is on record?
Answer: inconclusive [inhibitor, partial curve]

Question: With `COc1ccc(NC(=O)CN(C)S(=O)(=O)c2ccc(Br)s2)cc1OC` as the molecule, how does the Potency read?
Answer: inconclusive [inhibitor, single point]

Question: With `CCCCCCCCC(=O)N/N=C/c1cccc(Br)c1` as the molecule, how does the Potency read?
Answer: inconclusive [inhibitor, partial curve]

Question: For `O=C(/C=C/c1ccccc1)OCC(=O)c1c[nH]c2ccccc12`, which Potency is on record?
Answer: inconclusive [inhibitor, partial curve]

Question: With `COc1ccc(S(=O)(=O)N2CCCCCC2)cc1NC(=O)c1ccccc1F` as the molecule, how does the Potency read?
Answer: inconclusive [inhibitor, single point]

Question: Which “activity change, negative = inhibition” value does the source give for `C=CCSc1nnc(NC(=O)C2CC(=O)N(Cc3ccc(C)cc3)C2)s1` (stereo unspecified) here?
Answer: inactive: -13.4%

Question: With `O=C(c1ccc(Cl)c(S(=O)(=O)N2CCCC2)c1)N1CCN(c2ccccc2)CC1` as the molecule, how does the Potency read?
Answer: inconclusive [inhibitor, single point]

Question: With `O=[N+]([O-])c1ccccc1OCCCN1CCOCC1` as the molecule, how does the “activity change, negative = inhibition” value read?
Answer: inactive: 7.67%

Question: With `Clc1ccc(Cn2ncc3c(NCc4cccnc4)ncnc32)cc1` as the molecule, how does the Potency read?
Answer: active: 11.2 µM

Question: With `Nc1ccc2nc(-c3ccc(-c4nc5ccc(N)cc5[nH]4)cc3)[nH]c2c1` as the molecule, how does the “activity change, negative = inhibition” value read?
Answer: inactive: 1.68%

Question: Which “activity change, negative = inhibition” value does the source give for `COC(=O)c1c(NC(=O)CN2CCC3(O)CCCCC3C2c2ccccc2OC)sc(C)c1C` (stereo unspecified) here?
Answer: inactive: -1.33%

Question: For `COc1ccc(N2CCN(C3CCCCC3NS(=O)(=O)c3ccccc3)CC2)cc1` (stereo unspecified), which Potency is on record?
Answer: inconclusive [inhibitor, partial curve]

Question: Which Potency does the source give for `Cc1cccc(C(=O)N[C@H](C(=O)Nc2cccc(S(=O)(=O)N3CCCC3)c2)C(C)C)c1` here?
Answer: inconclusive [inhibitor, single point]

Question: With `Cc1cc(C)nc(/N=C(\N)Nc2ccc(C(C)C)cc2)n1` as the molecule, how does the Potency read?
Answer: active: 11.2 µM

Question: With `Cc1nc2nc(SCC(=O)NCCCN3CCCCCC3)nn2c(C)c1Cc1ccccc1Cl` as the molecule, how does the Potency read?
Answer: inconclusive [inhibitor, partial curve]

Question: For `COc1ccc(N(CC(=O)N2CCN(Cc3ccc4c(c3)OCO4)CC2)S(=O)(=O)c2ccc(F)cc2)cc1`, which Potency is on record?
Answer: inconclusive [inhibitor, single point]

Question: Which Potency does the source give for `CC[C@@H]1C=C(C(=O)O)[C@H](c2ccc(Cl)cc2)N1S(=O)(=O)c1ccc(C)cc1` here?
Answer: inconclusive [inhibitor, single point]

Question: Which “activity change, negative = inhibition” value does the source give for `CC(=O)c1ccccc1NC(=O)CCNC(=O)c1ccco1` here?
Answer: inactive: 7.56%

Question: For `Cc1ccc(-n2ncc(C(=O)Nc3cc(Cl)cc(Cl)c3)c2C2CCNCC2)cc1C`, which Potency is on record?
Answer: active: 12.6 µM

Question: With `Cc1cc(C(=O)NCCC(c2ccccc2)c2ccccc2)c(C)o1` as the molecule, how does the Potency read?
Answer: inconclusive [inhibitor, single point]

Question: For `CO/N=C/C(c1ccc(Cl)nc1)S(=O)(=O)c1ccccc1` (stereo unspecified), which “activity change, negative = inhibition” value is on record?
Answer: inactive: 12.5%

Question: Which Potency does the source give for `COC(=O)C(C)Sc1nc2ccsc2c(=O)n1Cc1ccccc1` (stereo unspecified) here?
Answer: inconclusive [inhibitor, partial curve]

Question: With `N#Cc1ccc(-c2ccco2)nc1SCC(=O)c1ccc(Cl)cc1` as the molecule, how does the Potency read?
Answer: active: 4.47 µM

Question: Which Potency does the source give for `CCOC(=O)Nc1ccc2nc(N3CCCCCC3)sc2c1` here?
Answer: inconclusive [inhibitor, partial curve]

Question: For `COc1ccc(-c2nc3ccccc3o2)cc1NC(=O)c1ccc(Br)o1`, which “activity change, negative = inhibition” value is on record?
Answer: inactive: 1.96%

Question: Which “activity change, negative = inhibition” value does the source give for `CCc1nc(SCC(=O)Nc2ccc(C(=O)O)cc2)n[nH]1` here?
Answer: inactive: 16.7%

Question: Which “activity change, negative = inhibition” value does the source give for `O=C(CNC(=O)C1CCCC1)Nc1ccccc1Br` here?
Answer: inactive: 24.9%

Question: For `CC(NCc1ccccc1C(F)(F)F)C(O)c1ccccc1` (stereo unspecified), which “activity change, negative = inhibition” value is on record?
Answer: inactive: 5.47%

Question: With `O=C(COc1ccc2c(c1)OCO2)Nc1nncs1` as the molecule, how does the “activity change, negative = inhibition” value read?
Answer: inactive: 20.4%

Question: Which “activity change, negative = inhibition” value does the source give for `CN(C)c1ccc([N+](=O)[O-])cc1C(=O)NCC(c1ccco1)N(C)C` (stereo unspecified) here?
Answer: inactive: 11.9%

Question: For `O=C(c1ccc(Cl)c([N+](=O)[O-])c1)N(Cc1ccccc1)C1CCS(=O)(=O)C1` (stereo unspecified), which “activity change, negative = inhibition” value is on record?
Answer: inactive: -15.8%

Question: With `CCCNC(=O)c1ccccc1NC(=O)c1ccc2c(c1)NC(=O)C(C)S2` (stereo unspecified) as the molecule, how does the Potency read?
Answer: active: 4.47 µM

Question: Which Potency does the source give for `COc1cccc(CN(C(=O)Cc2c[nH]c3ccccc23)C(C(=O)NC2CCCCC2)c2cccs2)c1` (stereo unspecified) here?
Answer: inconclusive [inhibitor, single point]

Question: Which “activity change, negative = inhibition” value does the source give for `CCOC(=O)C1CCN(c2nc(-c3ccccc3)nc3c2oc2ccccc23)CC1` here?
Answer: inactive: -9.16%

Question: For `COc1ccc(-c2cn(-c3ccc(C)c(Cl)c3)c(=S)[nH]2)cc1OC`, which Potency is on record?
Answer: inconclusive [inhibitor, full curve, poor fit]

Question: For `COc1ccc(NC(=O)Nc2cccc([N+](=O)[O-])c2)cc1Cl`, which Potency is on record?
Answer: inconclusive [inhibitor, partial curve]

Question: Which Potency does the source give for `COc1cc(-c2nc3ccc4ccccc4c3c3c2CCC3)cc(OC)c1O` here?
Answer: inconclusive [inhibitor, partial curve]

Question: With `COc1ccc(/C=C/C(=O)Nc2ccc(C)c(S(=O)(=O)N3CCOCC3)c2)cc1` as the molecule, how does the Potency read?
Answer: active: 2.82 µM

Question: Which Potency does the source give for `O=c1c2ccccc2nc(SCc2ccc([N+](=O)[O-])cc2)n1-c1ccccc1` here?
Answer: inconclusive [inhibitor, single point]

Question: With `O=C(NCc1cccnc1)NC1(C(F)(F)F)Oc2ccccc2O1` as the molecule, how does the Potency read?
Answer: inconclusive [inhibitor, single point]

Question: Which Potency does the source give for `CC(C)C[C@@H](CN1CCCC1CN1C(=S)NC[C@@H]1Cc1ccc(O)cc1)N1C[C@H](Cc2ccccc2)N(CCc2ccccc2)C1=S` (stereo partly specified) here?
Answer: inconclusive [inhibitor, single point]

Question: With `Cc1cc(C)cc(NC(=O)C(OC(=O)c2ccc(O)cc2)c2ccccc2)c1` (stereo unspecified) as the molecule, how does the Potency read?
Answer: inconclusive [inhibitor, single point]

Question: Which Potency does the source give for `Cc1c(C(=O)NCCN2C(=O)S/C(=C\c3cccs3)C2=O)cccc1[N+](=O)[O-]` here?
Answer: inconclusive [inhibitor, full curve, poor fit]

Question: With `CCOC(=O)c1cc2c(ccn2-c2ccc(F)cc2)n1CC(=O)N(CC)CC` as the molecule, how does the Potency read?
Answer: inconclusive [inhibitor, partial curve]

Question: Which Potency does the source give for `Cc1cccc(Cn2c(Sc3nc(C)cs3)nc3c2c(=O)[nH]c(=O)n3C)c1` here?
Answer: inconclusive [inhibitor, partial curve]

Question: For `CN1CCCN(C(=O)c2cc(-c3cccc4ccccc34)nc3ccccc23)CC1`, which Potency is on record?
Answer: inconclusive [inhibitor, full curve]

Question: Which Potency does the source give for `COC(=O)c1ccc(NC(=O)CSc2nc3ccc(N4C(=O)C5C6C=CC(C6)C5C4=O)cc3s2)cc1` (stereo unspecified) here?
Answer: active: 11.2 µM

Question: Which Potency does the source give for `O=C(CCN1CCN2CCCC2C1)N1c2ccccc2Sc2ccc(Cl)cc21` (stereo unspecified) here?
Answer: inconclusive [inhibitor, partial curve]

Question: With `CCOC(=O)c1cc(-c2cccs2)nc2c1c(C)nn2-c1ccccn1` as the molecule, how does the Potency read?
Answer: active: 10 µM
